Data taken from PMC6919601, “Identification of Plasmodium dipeptidyl aminopeptidase allosteric inhibitors by high throughput screening” (PLoS ONE, 2019).
The campaign covered roughly 110,000 compounds. About 230 (0.21%) showed an effect of 50% or more. This is one part of the list.

What follows are molecules tested against DPAP1 (Plasmodium falciparum, UniProt Q8IIJ9) (assay: primary screen, percent inhibition; read by cleavage of a fluorogenic dipeptide substrate; higher = more effect of the substance).
Set-up: species or system P. falciparum D10 trophozoite lysates; single well
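Note: 30 min substrate incubation versus DMSO and 10 µM JCP410 controls.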

Sequence of DPAP1 (Q8IIJ9 whole entry, looked up): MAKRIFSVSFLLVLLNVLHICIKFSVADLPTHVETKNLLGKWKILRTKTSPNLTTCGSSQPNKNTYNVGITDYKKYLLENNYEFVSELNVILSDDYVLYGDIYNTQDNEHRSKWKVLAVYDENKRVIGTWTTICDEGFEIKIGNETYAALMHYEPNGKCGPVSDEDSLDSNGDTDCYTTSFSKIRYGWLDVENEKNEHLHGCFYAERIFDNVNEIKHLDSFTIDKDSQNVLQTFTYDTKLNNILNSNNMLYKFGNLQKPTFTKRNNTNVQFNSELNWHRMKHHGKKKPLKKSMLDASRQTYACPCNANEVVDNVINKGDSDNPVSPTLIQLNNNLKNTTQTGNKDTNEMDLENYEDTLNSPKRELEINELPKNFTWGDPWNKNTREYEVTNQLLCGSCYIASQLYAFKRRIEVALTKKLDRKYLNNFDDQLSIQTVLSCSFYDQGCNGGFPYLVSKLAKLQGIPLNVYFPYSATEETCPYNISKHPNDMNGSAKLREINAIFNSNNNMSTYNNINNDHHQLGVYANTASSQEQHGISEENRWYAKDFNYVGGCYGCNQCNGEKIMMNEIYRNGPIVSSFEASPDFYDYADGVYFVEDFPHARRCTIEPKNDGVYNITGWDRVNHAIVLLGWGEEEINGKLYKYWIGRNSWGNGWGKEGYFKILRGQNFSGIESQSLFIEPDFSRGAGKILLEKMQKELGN

Compound | % Inhibition @ 10 uM
Brc1ccccc1-c1nnc2sc(Cc3ccccc3)nn12 | -4.02%
O=C1NC(=O)/C(=C/c2ccc(-c3cccc(Cl)c3Cl)o2)N1 | -1.25%
CCOC(=O)c1c(C)[nH]c(C)c1S(=O)(=O)N1CCC2(CC1)OCCO2 | -2.15%
CCOc1cccc(C2C(C#N)=C(N)Oc3[nH]nc(C)c32)c1OCc1ccc(Cl)cc1 (centres unmarked) | 5.31%
CCOC(=O)C1=C(C)OC(N)=C(C#N)C1c1ccc(SC)cc1 (centres unmarked) | 3.03%
CN(C)S(=O)(=O)c1ccc(-c2cs/c(=N\c3ccccc3)n2CCN2CCOCC2)cc1 | -2.46%
CC(=O)c1ccc(-n2nncc2C(C)(C)C)cc1 | 5.63%
Cc1cc(C)n(Cc2ccc(C(=O)Nc3ccc(Br)cc3C)o2)n1 | -3.37%
COc1ccc(C2=NN(C(C)=O)C(c3ccccc3F)C2)cc1OC (centres unmarked) | -1.42%
Cc1ccc(NC(=O)c2ccc(C)o2)c(Br)c1 | -3.26%
Cc1ccc(S(=O)(=O)CC2CC2(Cl)Cl)cc1 (centres unmarked) | -1.81%
CC(=O)N1N=C(c2ccc(O)cc2)CC1c1c(Cl)cccc1Cl (centres unmarked) | -0.0938%
CSc1ccc2ccccc2[n+]1C | -0.615%
Cc1cc(=O)n(Cc2ccccn2)c2c1c(C)nn2-c1cccc(F)c1 | 5.73%
C#CCSc1nc2ccccc2c(=O)n1CC | -1.02%
COc1ccc(C(=O)NC2CCCCC2NC(=O)c2ccc(OC)cc2)cc1 (centres unmarked) | -1.88%
COc1ccccc1C(=O)N/C(=C\c1ccccc1)C(=O)NC(Cc1ccccc1)C(=O)O (centres unmarked) | -6.9%
CCS(=O)(=O)N1CCC2(CC1)OC(=O)C(C)=C2C(=O)N1CCN(c2ccccn2)CC1 | 1.71%
COc1cc(C2CC3=Nc4ccccc4NC(c4ccc(O)cc4)C3=C(O)C2)cc(OC)c1OC (centres unmarked) | 2.69%
CC(C)(C)c1ccc(C(=O)Nc2cc(Cl)ccc2Cl)cc1 | 5.1%
COc1ccc(C(=O)Nc2nc3c(s2)CCc2ccccc2-3)cc1 | -1.95%
CCc1ccc(/C=C/C(=O)c2cc3cccc(OC)c3oc2=O)cc1 | 9.02%

Compound | % Inhibition @ 10 uM
O=C1NC(c2ccc(F)cc2)(C(F)(F)F)C(=O)N1c1cccnc1 (centres unmarked) | -4.11%
COc1ccc(CNS(=O)(=O)c2c[nH]cn2)cc1 | 4.51%
CO/C(O)=C1\C(C)=NC2=C(C(=O)CCC2)C1c1ccc(Cl)cc1Cl (centres unmarked) | 4.38%
CC(C)CC(C(=O)O)N1C(=O)c2cc(Cl)c(Cl)cc2C1=O (centres unmarked) | -7.15%
COC(=O)c1sc(NC(=O)COc2ccc(Cl)cc2)nc1C | -1.25%
CCc1c(-c2ccccc2)nc(N)c(C#N)c1-c1cccs1 | -3.13%
O=C(CN1C(=O)C2C3C=CC(C3)C2C1=O)Nc1nccs1 (centres unmarked) | -0.85%
CC(CNC(=O)Cn1ncc2c3ccccc3n(Cc3ccccc3)c2c1=O)c1ccccc1 (centres unmarked) | 1.8%
O=C(O)C1CCCCC1C(=O)Nc1ccccc1C(=O)N1CCN(c2ccc(F)cc2)CC1 (centres unmarked) | -0.95%
CCOC(=O)N1CCN(c2nc3ccc(C)cc3n3nnnc23)CC1 | -0.416%
CN(C)CCN(C)Cc1c(F)cccc1Cl | -2.44%
CC(N)Cc1ccccc1S(=O)c1ccccc1 (centres unmarked) | -0.981%
COc1ccc2c(c1)CCC1=C2N=C(S)NC1c1ccccc1 (centres unmarked) | 3.15%
CCCc1ccc(OCC(=O)O)cc1 | 3.44%
CN1CCCN(C2CCC(C(C)(C)C)CC2)CC1 (centres unmarked) | -0.0908%
CCOc1cccc(NC(=O)C2CC(=O)N(c3ccc(Cl)cc3)C2)c1 (centres unmarked) | -14.4%
NC(=O)Cc1c[nH]c2cccc(O)c12 | 4.73%
Cc1[nH]c(C)c(S(=O)(=O)N(C)Cc2ccccc2)c1C(=O)N1CCCC1 | -5.91%
CC1(C)C(=O)C(C)(C)C12SCC1C(=O)N(Cc3ccccc3)C(=O)C12 (centres unmarked) | -3.41%
O=C(O)c1ccc2c(c1)C(=O)N(c1cc(C(F)(F)F)ccc1Cl)C2=O | 3.72%
Cc1ccc(COC(=O)c2nn(-c3ccccc3)nc2N)cc1 | -0.403%
Cc1ccc(C(=O)Cn2c(=N)n(C)c3ccccc32)cc1 | -1.89%

Compound | % Inhibition @ 10 uM
COCc1nn2cc(-c3ccc(C)cc3C)nc2s1 | -4.54%
Cc1ccc(S(=O)(=O)/N=C(/NC(Cc2ccccc2)C(=O)O)c2ccccc2)cc1 (centres unmarked) | 4.54%
Cc1nc(-n2cccc2)sc1C(=O)NCCc1ccc(Cl)cc1 | 4.22%
Cc1[nH]c2ccccc2c1CCN1C(=O)c2ccccc2C1=O | -1.57%
CCC(=O)N(/C=C1\Sc2ccccc2C1=O)c1cccc(Br)c1 | -11%
Cc1nnc(N2CCCC(C(=O)NCCc3c[nH]c4ccccc34)C2)c2nn(-c3ccccc3)c(C)c12 (centres unmarked) | 5.04%
O=C1c2sc3nc4n(c(=O)c3c2CCC1Sc1ccccc1)CCCCC4 (centres unmarked) | 4.54%
CC(=O)c1ccc(NC(=O)C(C)(C(F)(F)F)C(F)(F)F)cc1 | -3.09%
COc1cc(C2c3c(-c4ccccc4O)n[nH]c3C(=O)N2CCCO)cc(OC)c1OC (centres unmarked) | -1.35%
CCCN1CCN(CCCNC(=O)c2sc3nc(C)cc(C)c3c2-n2cccc2)CC1 | -6.82%
COc1ccccc1Nc1nc(NCC2CCCO2)c2ccccc2n1 (centres unmarked) | 0.472%
Cc1cc(/C=C2/NC(=O)N(c3ccccc3)C2=O)c(C)n1C(C)C | -0.95%
Cc1ccc(S(=O)(=O)NCCC(=O)NCCCN2CCOCC2)cc1 | -0.406%
CC(C)OCCCNC(=O)c1cc(-c2cccnc2)nc2ccccc12 | -2.26%
CC1CCc2c(sc(NC(=O)COc3ccc(Cl)cc3)c2C(N)=O)C1 (centres unmarked) | -2.46%
O=C(CSc1ncccn1)Nc1cccc(C(F)(F)F)c1 | -7.62%
COc1ccc(-c2noc(CC(=O)N3CCC(C)CC3)n2)cc1 | 4.84%
CN(C)c1ccnc2sc(C(=O)c3ccccc3)c(N)c12 | 3.05%
Cc1nc2ccc(Cl)cc2c(-c2ccccc2)c1C(=O)O | -3.14%
O=C(Cn1nc(-c2ccccc2)ccc1=O)NCC1CCCO1 (centres unmarked) | -1.21%
CC1CC(C)CN(C(=O)Cn2c(=O)c3cccn3c3cccnc32)C1 (centres unmarked) | -4.46%
